# Legend:
# [1] = Storage stability of the concentrated chelator-antibody conjugate solution; type: physicochemical; conditions: stored at 4°C
# Description: Antibody aGPC3-Fab was purified via PD-10 desalting chromatography column. The purity of antibody aGPC3-Fab was determined by size exclusion chromatography (SEC-HPLC). 20 nmol of purified antibody aGPC3-Fab was taken and the pH was adjusted to 8.5-9.0 using Na2CO3 (0.1 M, pH 9.0). Then, p-SCN-Bn-NOTA (dissolved in a small volume of DMSO) was added at a molar ratio of 20-30 times relative to the antibody, then reacted overnight at 4°C in the dark to synthesize NOTA-aGPC3-Fab. The excess unreacted NOTA was removed by purification via PD-10 desalting chromatography column. The purified antibody was concentrated using an ultrafiltration centrifuge tube (Millipore 0.5 mL/3 Kd) under conditions of 4°C, 13,000 x g, for 30 min, and then stored in a refrigerator at 4°C. The concentrated antibody solution remained stable for at least 3 months when stored at 4°C. 50 nmol of aGPC3-scFv antibody was taken and the pH was adjusted to 8.5-9.0 using Na2CO3 (0.1 M, pH 9.0). Then, p-SCN-Bn-DOTA (dissolved in a small volume of DMSO) was added at a molar ratio of 20 times relative to the antibody, then reacted at 25°C in the dark for 4 h to synthesize DOTA-aGPC3-scFv. The excess unreacted DOTA was removed by purification via PD-10 desalting chromatography column. […]
# [2] = test system: Huh7 (GPC3-positive); parameters: species or system Balb/c nude mice; conditions: mouse, in vivo
# Description: All animal studies were conducted in accordance with the guidelines of the Laboratory Animal Use and Management Committee of Tongji Medical College, Huazhong University of Science and Technology. Female Balb/c nude mice (4-5 weeks old) were purchased from Beijing Huafukang Biological Technology Co. Ltd and housed under SPF conditions at the Experimental Animal Center of Tongji Medical College, Huazhong University of Science and Technology. Huh7 and SK-HEP-1 cells in the logarithmic growth phase were collected, routinely digested with trypsin, and then cell pellets were collected and counted. Subsequently, washing was performed twice with pre-cooled PBS, and cell pellets were collected by centrifugation. A cell resuspension solution was prepared at a volume ratio of PBS : Matrigel = 1:1. The cells were blown thoroughly and then inoculated subcutaneously near the armpit of the right forelimb of each mouse, with each mouse receiving 1 x 10^7 cells (in a volume of 125 µL per mouse). The mice were used for subsequent experiments when the diameter of tumor reached 8-10 mm. Experimental group Huh7 tumor-bearing nude mice, control group SK-HEP-1 tumor-bearing nude mice, and liver cancer PDX models were intravenously injected via tail vein with ^68Ga-NOTA-aGPC3-Fab (3.7-5.55 MBq, 100-150 µCi). PET/CT scans were performed under isoflurane inhalation anesthesia at 0.5, 1, 2, and 4 h post-injection. Each scan acquisition lasted approximately 15 min. After scanning, PET and CT images were reconstructed following attenuation correction. Regions of interest (ROI) were delineated using Amide software to calculate the uptake values (%ID/g).
# [3] = test system: PDX transplant tumor; parameters: species or system NSG mice; conditions: mouse, in vivo
# Description: Experimental group Huh7 tumor-bearing nude mice, control group SK-HEP-1 tumor-bearing nude mice, and liver cancer PDX models were intravenously injected via tail vein with ^68Ga-NOTA-aGPC3-Fab (3.7-5.55 MBq, 100-150 µCi). PET/CT scans were performed under isoflurane inhalation anesthesia at 0.5, 1, 2, and 4 h post-injection. Each scan acquisition lasted approximately 15 min. After scanning, PET and CT images were reconstructed following attenuation correction. Regions of interest (ROI) were delineated using Amide software to calculate the uptake values (%ID/g). Collection of patient baseline data: the collection of all patient information and tumor samples was approved by the Clinical Ethics Committee of Union Hospital, Tongji Medical College, Huazhong University of Science and Technology. The inclusion criteria for sampling were preoperative suspicion of liver cancer and the assessed ability to obtain more than 200 mm^3 of tumor tissue, with informed consent obtained from the patients prior to surgery. Basic clinical information collected from patients included general patient information, clinical data, tumor markers, biochemical indicators, imaging examination data, and postoperative pathological data. […] The health status of the mice was monitored daily for 5 consecutive days postoperatively, with attention to signs of wound dehiscence or infection. […]
# [4] = test system: Hep3B (GPC3-positive); parameters: species or system nude mice; conditions: mouse, in vivo
# Description: The human-derived liver cancer cell line Hep3B (GPC3-positive) was cultured in complete MEM medium (containing 10% FBS and 1% penicillin-streptomycin). Cells were maintained in a cell culture incubator at 37°C with 5% CO2. Hep3B cells in the logarithmic growth phase were collected, routinely digested with trypsin, and then cell pellets were collected and counted. Subsequently, washing was performed twice with pre-cooled PBS, and cell pellets were collected by centrifugation. A cell resuspension solution was prepared at a volume ratio of PBS : Matrigel = 1:1. The cells were blown thoroughly and then inoculated subcutaneously near the armpit of the right forelimb of each mouse, with each mouse receiving 5 x 10^6 cells (in a volume of 100 µL per mouse). The mice were used for subsequent experiments when the diameter of tumor reached 8-10 mm. Hep3B tumor-bearing nude mice and the Hep3B liver orthotopic cancer model were intravenously injected via tail vein with ^68Ga-NOTA-aGPC3-scFv (3.7-5.55 MBq, 100-150 µCi). PET/CT scans were performed under isoflurane inhalation anesthesia at 1, 2, and 4 h post-injection. Each scan acquisition lasted approximately 15 min. After scanning, PET and CT images were reconstructed following attenuation correction. Regions of interest (ROI) were delineated using Amide software to calculate the uptake values (%ID/g).
molecule,measurement,setting,value
NOTA-aGPC3-Fab: aGPC3-Fab reacted with p-SCN-Bn-NOTA; unlabelled precursor of ^68Ga-NOTA-aGPC3-Fab (conjugate) heavy: [about 100 residues not written out]EYDFKTGWMHYYYGMDVWGQGTTVTVSSASTKGPSVFPLAPSSKSTSGGTAALGCLVKDYFPEPVTVSWNSGALTSGVHTFPAVLQSSGLYSLSSVVTVPSSSLGTQTYICNVNHKPSNTKVDKKVEPKSCDKTHL light: QSVLTQPPSVSGAPGQRVTISCTGSSSGYDVHWYQQLPGRAPKLLIYGSNNRPSGVPDRFSGSNSGTSASLAITGLQAEDEADYYCQSYDSSLNAIFGGGTKLTVLGQPKAAPSVTLFPPSSEELQANKATLVCLISDFYPGAVTVAWKADSSPVKAGVETTTPSKQSNNKYAASSYLSLTPEQWKSHRSYSCQVTHEGSTVEKTVAPTECS,time the concentrated antibody solution remained stable,[1],at least 3 months
^68Ga-NOTA-aGPC3-Fab: ^68Ga-labelled NOTA conjugate of the Fab antibody targeting GPC3 (conjugate) heavy: [about 100 residues not written out]EYDFKTGWMHYYYGMDVWGQGTTVTVSSASTKGPSVFPLAPSSKSTSGGTAALGCLVKDYFPEPVTVSWNSGALTSGVHTFPAVLQSSGLYSLSSVVTVPSSSLGTQTYICNVNHKPSNTKVDKKVEPKSCDKTHL light: QSVLTQPPSVSGAPGQRVTISCTGSSSGYDVHWYQQLPGRAPKLLIYGSNNRPSGVPDRFSGSNSGTSASLAITGLQAEDEADYYCQSYDSSLNAIFGGGTKLTVLGQPKAAPSVTLFPPSSEELQANKATLVCLISDFYPGAVTVAWKADSSPVKAGVETTTPSKQSNNKYAASSYLSLTPEQWKSHRSYSCQVTHEGSTVEKTVAPTECS,route of metabolism/clearance (accumulation in kidneys and bladder),[2],primarily metabolized via the renal pathway
same,tumor-to-heart ratio,[2],3.06
same,tumor-to-liver ratio,[2],1.42
same,tumor-to-muscle ratio,[2],6.60
same,route of metabolism/clearance (accumulation in kidneys and bladder),[3],primarily metabolized via the renal pathway
^68Ga-NOTA-aGPC3-scFv: ^68Ga-labelled NOTA conjugate of the scFv targeting GPC3 (conjugate) scFv: [about 100 residues not written out]EYDFKTGWMHYYYGMDVWGQGTTVTVSSGGGGSGGGGSGGGGSQSVLTQPPSVSGAPGQRVTISCTGSSSGYDVHWYQQLPGRAPKLLIYGSNNRPSGVPDRFSGSNSGTSASLAITGLQAEDEADYYCQSYDSSLNAIFGGGTKLTVLGHHHHHH,route of metabolism/clearance (accumulation in kidneys and bladder),[4],primarily metabolized via the renal pathway
same,blood half-life compared with ^68Ga-NOTA-aGPC3-Fab,[4]; sc,shorter blood half-life
same,tumor-to-blood pool ratio,[4]; sc,4.91 ± 1.84
same,tumor-to-blood pool ratio compared with ^68Ga-NOTA-aGPC3-Fab,[4]; sc,significantly higher
same,tumor-to-liver ratio,[4]; sc,2.25 ± 0.78
same,tumor-to-liver ratio compared with ^68Ga-NOTA-aGPC3-Fab,[4]; sc,significantly higher
same,tumor-to-muscle ratio,[4]; sc,8.92 ± 5.72
same,tumor-to-muscle ratio compared with ^68Ga-NOTA-aGPC3-Fab,[4]; sc,slightly higher

# Reference: patent publication EP4768506A1, “MOLECULAR PROBES TARGETING GPC3 AND USE THEREOF” (Wuhan Raydif Biotechnology Co., Ltd., priority 2023, dated 2025)
